Results: PubChem BioAssay (NCI)
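Compound exposure: 48 hours, 5 concentrations, 96-well plates. GI50 is the concentration that inhibits growth by half. TGI is the concentration that stops growth completely.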 Peptide text beside a SMILES is read from it.

System: NCI-H322M lung
Test: NCI tumour cell line growth inhibition, 48 h

SMILES: O=[N+]([O-])c1ccc(-c2nnc(SCc3ccc(O)c4ncccc34)o2)cc1
- GI50: 1180 nM
- TGI: > 100000 nM

SMILES: COc1ccc(-c2nnc(SCc3ccc(O)c4ncccc34)n2-c2ccccc2)cc1
- GI50: 955 nM
- TGI: > 63100 nM

SMILES: COc1cc(NC2=C(Cl)C(=O)c3nc(C)ccc3C2=O)cc(OC)c1
- GI50: 3420 nM
- TGI: 12800 nM

SMILES: C=C(C)[C@@H]1CC[C@]2(COC)CC[C@]3(C)[C@H](CC[C@@H]4[C@@]5(C)CCCNC(C)(C)[C@@H]5CC[C@]43C)[C@@H]12
- GI50: 1590 nM
- TGI: 2950 nM

SMILES: CC[C@@](C)(NC(=O)C(C)(C)NC(=O)[C@@H](NC(=O)[C@@H]1CCCN1C(=O)C(C)(C)NC(=O)[C@H](CC(C)C)NC(=O)CNC(=O)C(C)(C)NC(=O)[C@@H](NC(=O)C(C)(C)NC(=O)[C@H](CCC(N)=O)NC(=O)[C@H](C)NC(=O)C(C)(C)NC(=O)[C@H](C)NC(=O)C(C)(C)NC(=O)[C@H](C)NC(=O)C(C)(C)NC(C)=O)C(C)C)C(C)C)C(=O)N[C@@H](CCC(N)=O)C(=O)N[C@@H](CCC(N)=O)C(=O)N[C@H](CO)CC1CCCCC1 (HELM PEPTIDE1{[ac].[Aib].A.[Aib].A.[Aib].A.Q.[Aib].V.[Aib].G.L.[Aib].P.V.[Aib].[CC[C@@](C)(N[*:1])C(=O)[*:2]].Q.Q.[OC[C@H](CC1CCCCC1)N[*:1]]}$$$$V2.0)
- GI50: 2080 nM
- TGI: > 5000 nM
